# In PubChem BioAssay AID686979 (National Center for Advancing Translational Sciences (NCATS), 2013):
# Hit rate of the full screen: of about 420,000 compounds, about 50,000 (12%) were called active. Inconclusive means that the source gave no clear call. Such entries were picked first, then a sample of the others. Calls follow the shape of the dose curve; as a rule, active = well fitted inhibition curve with a large enough effect; inconclusive = small, poorly fitted or top-dose-only effect; inactive = flat fitted curve, though single readings scatter. No potency is given beside an inconclusive call; the fits are too rough.
# Experiment: qHTS for Inhibitors of human tyrosyl-DNA phosphodiesterase 1 (TDP1): qHTS in cells in presence of CPT; also: nearly all actives have a fitted effect of over 55% in size
# Settings: chicken DT40 Tdp1-/-;hTDP1 cells + 20 nM CPT, ATP luminescence, 48 h; activity change, negative = growth inhibition: at 46.2 µM (top of the series) unless noted
# Summary of the method: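 Chicken DT40 Tdp1-/- cells stably complemented with human TDP1 were seeded at 400 cells/well in medium containing 20 nM camptothecin, exposed to pin-transferred compounds, and grown at 37 °C for at least 48 hr. Viability was read as ATP luminescence.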
# % is scaled to controls: 0 for no effect and ±100 for the full control effect; potency is read from the fitted curve at half-maximal effect; tags tell the direction and shape of the fitted curve.
SMILES,Potency,"activity change, negative = growth inhibition"
Cc1cc(C)cc(NC(=O)Cc2noc3ccccc23)c1,inactive,–
O=C(NC1CCCc2ccccc21)c1ccc(Br)cc1 (stereo not given),"inconclusive [inhibitor, partial curve]",–
Cc1cc(C)c(NC(=O)C2CCCN(S(=O)(=O)c3c(C)noc3C)C2)c(C)c1 (stereo not given),"inconclusive [inhibitor, partial curve, poor fit]",–
CCOC(=O)CCC(=O)NNC(=O)c1ccc(NC(=O)c2ccccc2)cc1,active: 18.4 µM,–
CCOC(=O)C1Nc2ccc(C(F)(F)F)cc2C2c3ccccc3CC12 (stereo not given),active: 18.4 µM,–
COc1ccc(OC)c(NC(=O)CSc2nncc3ccccc23)c1,inactive,–
Cc1onc(-c2ccccc2)c1C(=O)n1nnc2ccccc21,"inconclusive [inhibitor, partial curve, poor fit]",–
COc1ccc2c(=O)c3c(=O)n(Cc4ccco4)c(-c4ccco4)nc3oc2c1,active: 20 µM,–
CCOc1ccc(/C=C2\SC(=S)N(CC(=O)Nc3ccccn3)C2=O)cc1,–,inconclusive: -30% [inhibitor]
CCCCCCOc1ccc(C2C(=O)N(C3CCCCC3)CC(=O)N2C2CCCCC2)cc1 (stereo not given),inactive,–
CC(NC(=O)CSc1nc(C2CC2)n(-c2ccccc2)n1)c1ccco1 (stereo not given),"inconclusive [inhibitor, single point]",–
COc1ccc(C(=O)N2CCN(c3ccc(NC(=O)Cc4ccccc4)cc3)CC2)cc1,"inconclusive [inhibitor, single point]",–
N#CCCN(C(=S)NC(=O)c1ccco1)c1ccccc1F,"inconclusive [inhibitor, single point]",–
Cc1ccc(S(=O)(=O)/N=C(\Sc2ccccc2)c2ccccc2)cc1,active: 5.8 µM,–
CCn1c(NC(=O)C2CCCCC2)nc2ccccc21,active: 18.4 µM,–
O=Nc1c(O)[nH]c2ccc(Cl)c(Cl)c12,–,inconclusive: -30.8% [inhibitor]
COc1ccc(/C(O)=C/C(=O)C(=O)NNC(=O)C(O)(c2ccccc2)c2ccccc2)cc1,"inconclusive [inhibitor, partial curve, poor fit]",–
CC[C@]12c3[nH]c4ccc(Cl)cc4c3CCN1C(=O)[C@@H](CC(=O)NCc1ccco1)C[C@@H]2C(=O)N1CCN(C(=O)c2ccco2)CC1,active: 16.4 µM,–
CCN1C(=O)C(CC(=O)Nc2ccc(OC)cc2)N(Cc2ccc(OC)c(OC)c2)C1=S (stereo not given),inactive,–
CC(C)(C)c1ccc(CNc2ccc([N+](=O)[O-])cn2)cc1,"inconclusive [inhibitor, single point]",–
